From PubChem BioAssay AID1030 (National Center for Advancing Translational Sciences (NCATS), 2008)
About 16,000 (7.3%) of roughly 220,000 compounds were called active. Inconclusive results, whose numbers are uncertain, are shown with a selection of clear calls. Calls follow the shape of the dose curve; as a rule, active = well fitted inhibition curve with a large enough effect (not every such curve was filed as active); inconclusive = small, poorly fitted or top-dose-only effect, or another doubt; inactive = no such curve, though single readings can be large or run the other way. Where the call is inconclusive, the potency comes from a doubtful curve fit.

Target: Aldehyde dehydrogenase 1A1 (Homo sapiens) (UniProt P00352)
Assay: qHTS Assay for Inhibitors of Aldehyde Dehydrogenase 1 (ALDH1A1);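 as to activity, negative = inhibition: plate controls were no enzyme wells and a reference inhibitor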
Details: Purified ALDH1A1, NADH fluorescence, propionaldehyde substrate; series mostly up to 75.3 µM; activity, negative = inhibition: at the top concentration
Potency is read from the fitted curve at half-maximal effect; tags tell the direction and shape of the fitted curve.

UniProt P00352, sequence (P00352 whole entry, looked up): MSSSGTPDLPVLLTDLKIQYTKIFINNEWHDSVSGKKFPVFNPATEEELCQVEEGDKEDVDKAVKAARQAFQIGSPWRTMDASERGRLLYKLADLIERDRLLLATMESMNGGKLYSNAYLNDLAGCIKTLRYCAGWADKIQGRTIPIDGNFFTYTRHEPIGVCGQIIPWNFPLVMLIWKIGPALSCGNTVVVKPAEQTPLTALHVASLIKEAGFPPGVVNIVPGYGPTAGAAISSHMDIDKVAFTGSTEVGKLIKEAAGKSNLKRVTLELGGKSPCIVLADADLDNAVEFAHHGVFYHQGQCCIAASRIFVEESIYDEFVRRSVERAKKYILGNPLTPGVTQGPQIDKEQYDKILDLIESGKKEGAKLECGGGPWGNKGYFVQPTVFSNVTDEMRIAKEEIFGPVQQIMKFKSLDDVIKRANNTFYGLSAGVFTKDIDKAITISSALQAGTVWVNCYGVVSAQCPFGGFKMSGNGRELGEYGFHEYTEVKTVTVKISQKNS

Potency, inconclusive:
COc1ccc2c(c1OC)C(=O)N(c1ccc3c(c1)CCC3)C2=O 2.82 µM [inhibitor, full curve]
c1cncc(-c2nc3ccccc3o2)c1 12.6 µM [inhibitor, partial curve]
C=CCn1c(SCc2cc(=O)n3ccsc3n2)nc2scc(C3CC3)c2c1=O 39.8 µM [inhibitor, single point]
CCCCOc1ccc(C(=O)NCC2(c3ccc(OC)cc3)CCOCC2)cc1 17.8 µM [inhibitor, single point]
Cc1c(C(=N)C(C#N)C#N)c(=N)oc2c1ccc1ccccc12 39.8 µM [inhibitor, single point]
Cn1c(C(=O)Nc2ccc3c(c2)OCO3)cc2c(=O)n(C)c3ccccc3c21 31.6 µM [inhibitor, partial curve]
O=C(Nc1ncc2c(n1)-c1ccccc1OC2)c1ccc(F)cc1 28.2 µM [inhibitor, partial curve]
CCC(=O)N1N=C(c2ccc(C)o2)CC1c1ccc(Br)cc1 (stereo not given) 39.8 µM [inhibitor, single point]
COc1ccc(-n2c(Cn3c(=O)sc4ccccc43)nnc2SCC(=O)N2CCCCC2)cc1 31.6 µM [inhibitor, single point]
COc1ccc(/C=N/NC(=O)c2cccc(NC(=O)c3ccccc3Cl)c2)c(OC)c1 3.55 µM [inhibitor, partial curve]
COC(=O)c1cccc(Nc2cc(C)nc(-c3ccccc3O)n2)c1 35.5 µM [inhibitor, single point]
c1ccc2cc3[nH]c(CN4CCCCC4)nc3cc2c1 28.2 µM [inhibitor, partial curve]
O=[N+]([O-])c1ccc2c(c1)nc1n2CCN(C2CCCCC2)C1 39.8 µM [inhibitor, single point]
O=[N+]([O-])c1cnccc1Nc1ccccc1 39.8 µM [inhibitor, single point]
CCCCC(=O)Nc1ccc(C(=O)Nc2ccc(S(=O)(=O)Nc3nccc(C)n3)cc2)cc1 39.8 µM [inhibitor, single point]
CCCc1cc(=O)[nH]c(SCCOC(=O)c2ccccc2)n1 22.4 µM [inhibitor, single point]
COc1ccc(-n2c(C)nc3cc(C(=O)N4CCOCC4)ccc32)cc1 37.7 µM [inhibitor, single point]
COc1ccc2nc(NC(=O)c3cccc(-c4cc5ccccc5oc4=O)c3)sc2c1 37.7 µM [inhibitor, single point]
CCOC(=O)N1CCN(S(=O)(=O)c2cc(OCC(=O)NC3CCCCC3)c(C)cc2Cl)CC1 39.8 µM [inhibitor, single point]
CCOC(=O)N1CCN(C(=O)CN(Cc2ccccc2)S(=O)(=O)c2ccc(OC)c(Cl)c2)CC1 22.4 µM [inhibitor, partial curve]
COc1ccc(C)cc1S(=O)(=O)N1CCC(C(=O)NCCC2=CCCCC2)CC1 17.8 µM [inhibitor, partial curve]
NC(=O)c1ccc(NC(=S)NCc2ccco2)cc1 39.8 µM [inhibitor, single point]
CCOC(=O)c1c(C)[nH]c(C(=O)CN2CCOCC2)c1C 39.8 µM [inhibitor, single point]
CCCOC(=O)CSC1=C(C#N)C(c2ccccc2OCC)C(C#N)C(=O)N1 (stereo not given) 44.7 µM [inhibitor, single point]
C/C(=N\NC(=S)Nc1c(C)cccc1C)c1cc2ccccc2o1 37.7 µM [inhibitor, single point]
CN1C(=O)c2ccc(N3CCCC3)cc2C1=O 14.1 µM [inhibitor, partial curve]
O=C(C1CCN(Cc2cccs2)CC1)N1CCN(Cc2ccc3c(c2)OCO3)CC1 22.4 µM [inhibitor, partial curve, poor fit]
Cc1ccccc1NC(=O)Cn1c(C)nc2ccc(N)cc2c1=O 25.1 µM [inhibitor, partial curve]
Cc1cccc(OCC(=O)Nc2ccc3c(c2)OCO3)c1C 25.1 µM [inhibitor, single point]

Potency, active:
CCC(CC)c1nnc(NC(=O)Cc2ccccc2[N+](=O)[O-])s1 20 µM
CCC(=O)N=c1n(C)c2ccccc2n1CCOc1ccccc1 5.01 µM
CCCCCCC(=O)N/N=C/Cc1ccccc1 12.6 µM
COc1cc(OC)c(C#N)c(S(=O)Cc2ccccc2)c1 (stereo not given) 14.1 µM
O=C(c1ccc(CSc2nc3ccncc3[nH]2)cc1)N1CCCCC1 25.1 µM
CC(OC(=O)c1ccc([N+](=O)[O-])s1)C(=O)Nc1ncc(Cl)cc1Cl (stereo not given) 6.31 µM
COC(=O)c1ccc(NC(=O)CNCc2ccncc2)cc1 22.4 µM

activity, negative = inhibition, inactive:
Cc1cc([N+](=O)[O-])nn1CC(=O)NCc1ccco1 -2.58%
COc1ccc(-n2c(C)cc(C(=O)CSc3nnc(-c4ccoc4C)n3C)c2C)cc1 -12.5%
COc1ccc2oc3cc(C)[n+]([O-])c(-c4ccc(Br)cc4)c3c2c1 2.1%
O=[N+]([O-])c1ccc(Cc2nnc(-c3ccccc3Cl)o2)cc1 -5.21%
CN(C)c1ncc2nc(-c3cc(F)cc(F)c3)c(=O)n(Cc3ccc(F)cc3)c2n1 -4.5%
CCOc1ccc(C(=S)N2CCOCC2)cc1 -2%
Cc1ncc([N+](=O)[O-])n1CC(=O)Nc1ccc2c(c1)OCO2 1.1%
NC(=O)C1CCN(C(=O)CCC(=O)c2ccc(Br)cc2)CC1 -3.84%
Cc1cc(Cc2cc(Cc3cc(C)cc(C(C)(C)C)c3O)c(C)cc2C)c(O)c(C(C)(C)C)c1 2.26% [at 13.5 µM]
